{"source": "paper PMC4575187", "about": "(PLoS ONE, 2015)", "key": {"[1]": {"test_system": "influenza A/Puerto Rico/8/34 (H1N1)", "settings": "/Puerto Rico/8/34, 48 h"}, "[2]": {"test_system": "influenza A/Puerto Rico/8/34 (H1N1)", "assay": "microbe, parasite or virus in culture", "settings": "H1N1, MDCK, read-out: H1N1 IC50"}, "[3]": {"test_system": "WT of influenza strain of A/Puerto Rico/8/34 (H1N1)", "assay": "microbe, parasite or virus in culture", "type": "cell-based", "settings": "H1N1, MDCK, read-out: IC50 against WT A/Puerto Rico/8/34 (H1N1)"}, "[4]": {"test_system": "influenza A/Puerto Rico/8/34 (H1N1)", "assay": "Quantitative real-time PCR of viral HA gene", "type": "cell-based, influenza A virus"}, "[5]": {"test_system": "influenza A/Puerto Rico/8/34 (H1N1)", "type": "cell-based, influenza A virus"}, "[6]": {"test_system": "influenza A/Puerto Rico/8/34 (H1N1)", "assay": "Enzyme-linked immunosorbent assay of viral nucleoprotein (NP)", "type": "cell-based, influenza A virus"}, "[7]": {"test_system": "influenza virus A/Puerto Rico/8/34 (H1N1)", "assay": "Hemolysis inhibition assay at low pH", "settings": "pH 5"}}, "note": "Ends that are not written are not given here."}
{"compound": "GLFGAIAGFIKKGWPGLVKG-NH2 [HA-FP-3-1]", "values": [{"measurement": "H1N1 IC50", "setting": "[1]", "result": "10.37 ± 0.05", "unit": "mg/L"}]}
{"compound": "NC(=O)c1ncn([C@@H]2O[C@H](CO)[C@@H](O)[C@H]2O)n1", "note": "[Ribavirin]", "values": [{"measurement": "IC50", "setting": "[2]", "result": 3.22, "unit": "mg/L"}]}
{"compound": "GLFGAIAGFIKGGWPGLVKG-NH2 [HA-FP-3]", "values": [{"measurement": "H1N1 IC50", "setting": "[1]", "result": "15.17 ± 3.69", "unit": "mg/L"}]}
{"compound": "CCOC(=O)C1=C[C@@H](OC(CC)CC)[C@H](NC(C)=O)[C@@H](N)C1", "note": "[Oseltamivir, reference compound]", "values": [{"measurement": "IC50", "setting": "[3]", "result": "0.017 ± 0.002", "unit": "mg/L"}]}
{"compound": "GLFGAIAGFIKNGWKGMIKG-NH2 [HA-FP-1]", "values": [{"measurement": "mRNA level of viral HA gene", "setting": "[4]", "result": "reduced level of mRNA expression"}, {"measurement": "virus inhibitory effect, virus titer reduction assay", "setting": "[5]", "result": "dose-dependent manner"}, {"measurement": "virus inhibitory effect, ELISA", "setting": "[6]", "result": "dose-dependent manner"}, {"measurement": "H1N1 IC50", "setting": "[1]", "result": "9.61 ± 1.15", "unit": "mg/L"}, {"measurement": "hemolysis of cRBCs induced by virus at low pH", "setting": "[7]", "result": "apparently inhibited in a dose-dependent manner"}]}
